Source: PubChem BioAssay AID504332 (National Center for Advancing Translational Sciences (NCATS), 2011)
Hit rate of the full screen: of about 350,000 compounds, about 31,000 (8.9%) were called active. The inconclusive results got no clear call from the source; some entries with a clear call stand among them for comparison. The call rests on the fitted dose curve; in most records, active means well fitted inhibition curve with a large enough effect; inconclusive means small, poorly fitted or top-dose-only effect; inactive means no such curve, though single readings can be large or run the other way. Potencies of inconclusive entries are doubtful fits and often do not repeat.
Further: nearly all actives have a fitted effect of over 75% in size.
On the % scale 0 is the no-effect control and ±100 the full control effect; potency means the concentration at half of the fitted maximal effect; tags describe the fitted curve by direction and shape.

Each compound was assayed against Histone-lysine N-methyltransferase EHMT2 (Homo sapiens) (UniProt Q96KQ7) (assay: qHTS Assay for Inhibitors of Histone Lysine Methyltransferase G9a). Details: G9a H3K9 monomethylation, AlphaScreen, 2 h; activity, negative = inhibition: at 59 µM (top of the series) unless noted.
Chain of UniProt Q96KQ7 (Q96KQ7 whole entry, looked up): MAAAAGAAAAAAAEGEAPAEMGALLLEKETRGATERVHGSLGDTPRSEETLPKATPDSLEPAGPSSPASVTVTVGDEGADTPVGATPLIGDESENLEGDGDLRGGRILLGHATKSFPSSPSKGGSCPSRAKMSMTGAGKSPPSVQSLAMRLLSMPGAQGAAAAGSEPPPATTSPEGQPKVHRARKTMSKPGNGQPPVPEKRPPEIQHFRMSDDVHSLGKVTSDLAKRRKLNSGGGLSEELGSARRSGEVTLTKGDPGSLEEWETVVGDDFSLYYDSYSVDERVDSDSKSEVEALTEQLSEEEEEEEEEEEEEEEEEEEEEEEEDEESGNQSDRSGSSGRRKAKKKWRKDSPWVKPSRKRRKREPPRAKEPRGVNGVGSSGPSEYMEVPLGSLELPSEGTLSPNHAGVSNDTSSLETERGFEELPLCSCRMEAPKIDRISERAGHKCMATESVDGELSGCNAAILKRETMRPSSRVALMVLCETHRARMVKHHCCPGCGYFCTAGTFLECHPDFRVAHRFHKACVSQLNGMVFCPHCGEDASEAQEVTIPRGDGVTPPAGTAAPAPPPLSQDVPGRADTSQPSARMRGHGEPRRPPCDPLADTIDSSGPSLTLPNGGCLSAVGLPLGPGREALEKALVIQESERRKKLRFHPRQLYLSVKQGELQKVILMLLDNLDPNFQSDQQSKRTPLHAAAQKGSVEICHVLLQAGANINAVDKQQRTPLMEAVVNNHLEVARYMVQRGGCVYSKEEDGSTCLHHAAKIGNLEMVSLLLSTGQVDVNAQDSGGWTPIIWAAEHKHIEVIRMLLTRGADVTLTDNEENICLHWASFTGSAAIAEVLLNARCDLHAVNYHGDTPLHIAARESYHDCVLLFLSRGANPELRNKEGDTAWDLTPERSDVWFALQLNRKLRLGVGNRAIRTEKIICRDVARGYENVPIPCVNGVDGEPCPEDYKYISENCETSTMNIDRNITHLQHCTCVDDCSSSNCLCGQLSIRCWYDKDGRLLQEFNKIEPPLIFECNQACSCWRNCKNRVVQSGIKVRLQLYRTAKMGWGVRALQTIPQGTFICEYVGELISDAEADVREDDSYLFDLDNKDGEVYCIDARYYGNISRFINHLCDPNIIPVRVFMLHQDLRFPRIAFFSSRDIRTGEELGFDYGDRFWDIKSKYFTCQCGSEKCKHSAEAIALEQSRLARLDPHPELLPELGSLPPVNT
Outline: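 Methyltransferase reactions run at room temperature for 2 h (20 nM enzyme, 500 nM biotin-H3K9 peptide, 20 uM SAM) after a 15 min compound preincubation; product detected by AlphaScreen beads and anti-H3K9me1 antibody.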
In the case of CN1/C(=C\C(=O)c2ccccc2Cl)c2ccccc2CC1(C)C, the Potency is reported as inconclusive: 20 µM [inhibitor, single point]. With O=c1c2sc3ccccc3c2n(Cc2cccc(C(F)(F)F)c2)c(=O)n1Cc1ccco1 the Potency was “inactive”. CCCS(=O)(=O)N1CCN(CC2CC=CCC2)CC1 (stereo unspecified) was tested, and the Potency was active: 7.08 µM. For Cc1cccc(N(C(=O)c2snc(C(N)=O)c2N)C(C(=O)NCC2CCCO2)c2ccc3ncccc3c2)c1 (stereo unspecified), the Potency was “inactive”. Cc1ccc(OCC(=O)Nc2ccc(S(=O)(=O)Nc3ncccn3)cc2)c(C(C)(C)C)c1 was tested, and the Potency was active: 14.1 µM. In the case of O=S1(=O)CCN(Cc2ccccn2)CC1, the Potency is reported as inconclusive: 70.8 µM [inhibitor, single point]. N#Cc1nc(COc2ccc(Cl)cc2Cl)oc1N1CCOCC1 was tested, and the activity, negative = inhibition was inconclusive: -61.4% [inhibitor]. In the case of CCOC(=O)N1CCN(C(=O)c2cn(-c3ccc(C)c(C)c3)c(=O)c3ccccc23)CC1, the activity, negative = inhibition is reported as inactive: -5.56% [at 12.7 µM]. With Cc1ccc(-c2nnc(SCC(=O)N3CCOCC3)nc2-c2ccc(C)cc2)cc1 the Potency was inconclusive: 20 µM [inhibitor, partial curve, poor fit]. In the case of CCNc1c(C(=O)O)ccc2c1C(=O)c1ccccc1C2=O, the Potency is reported as inconclusive: 35.5 µM [inhibitor, single point]. For COc1ccc(-c2cn3cccnc3n2)cc1NC(=O)c1ccc(Br)o1, the Potency was active: 2.82 µM. In the case of CCOC(=O)c1ccc(NC(=O)CSc2nnc3c4ccccc4n(CC)c3n2)cc1, the Potency is reported as inconclusive: 31.6 µM [inhibitor, partial curve, poor fit]. CC1C(=O)N2CCCc3cc(S(=O)(=O)NCc4ccccc4Cl)cc1c32 (stereo unspecified) was tested, and the Potency was “inactive”. For CCOC(=O)/C(=N\Nc1ccc(Cl)cc1)c1csc(Nc2ccccc2)n1, the Potency was inconclusive: 35.5 µM [inhibitor, partial curve, poor fit]. In the case of O=c1cc(O)n(Cc2ccc(F)cc2)c(=O)[nH]1, the Potency is reported as “inactive”. With CCCC(c1nnnn1CCOC)N1CCN(c2cccc(OC)c2)CC1 (stereo unspecified) the Potency was active: 44.7 µM. CCOc1cc(Br)cc(C2NC(=O)c3c(sc4c3CCN(C)C4)N2)c1O (stereo unspecified) was tested, and the Potency was inconclusive: 5.01 µM [inhibitor, partial curve, poor fit]. With NC(N)=N/N=C/c1ccc(OCc2ccccc2)c(OCc2ccccc2)c1 the Potency was inconclusive: 89.1 µM [inhibitor, single point]. CCn1nc(NC(=O)c2ccco2)c2cc3cc(C)ccc3nc21 was tested, and the Potency was “inactive”. For N#Cc1cc2c(nc1SCc1ccccc1)CCCC2, the Potency was “inactive”. For COc1ccc(C2=Nc3ccc(F)cc3NC(c3cccc(C(F)(F)F)c3)=N2)cc1, the Potency was inconclusive: 4.47 µM [inhibitor, single point].
